Assay results published in the supplement of paper PMC11417369.
This is one part of the list.

tested on: PfSIP2 AP2 domain 1 (GST-tagged); experiment: gcPBM binding intensity (ln(normalized median fluorescence intensity)); higher = stronger DNA binding
How it was run: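 Binding of GST-tagged P. falciparum DNA-binding domains, expressed in E. coli and used at about 25 μg on average, was carried out for 1 h in 1× PBS containing 1% milk, 0.2 mg/ml BSA, 0.5% salmon testes DNA and 0.03% Triton X-100. The target was an Agilent 4 × 180k array of primer-extended double-stranded 36-bp intergenic genomic probes plus negative controls, read with Alexa488 anti-GST antibody at 488 nm. Binding intensity is the highest Masliner-normalised natural-log median intensity across replicate spots of either probe orientation.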

Sequence | gcPBM binding intensity (ln)
TTAAATATTTATATTTGTACACAATCAATCATACAC [XGTACX_site5793] | 7.54
AAAAAAAAAAAAAAAAGTACAAATTTAAAAATGTGT [XGTACX_site112] | 7.78
TTGGTTTCTTGTTTTTGTACCCATAATTTGTAATAT [XGTACX_site1248] | 7.52
TGTTTTGTTATTTTTATTTATATAAATAAAGCTATA [GTGCAC_negctrl_site88] | 7.27
CATAAATACAGTAACACACACAAAAAAATATGAATA [CACACA_site6066] | 6.88
ATATATATATTATATGCACACTAATAAGACTATTTA [CACACA_site5880] | 9.55
TTGTTATGCATTGGTTGTACATAAGTATAAGTAATT [XGTACX_site5401] | 7.16
ATATATATATTTTATTGTACAAAAAAAAAAAAAAAA [XGTACX_site6803] | 8.39
TTTGTTTGTAAAATGTTGCACTTTCTTTTGCTGATA | 8.49
ATAGGATTCTCAAAGTGTACTTGTCTACTGTAGTTT [XGTACX_site4202] | 6.83
AAAAAAAAAATATGTACACACATATAAAATACATAA [CACACA_site6869] | 7.2
CCATTATACACAATATGTACATATATATAATCATTT [XGTACX_site7942] | 7.17
ACATATATATATATTACACACACACTAATAAAATAA [CACACA_site7920] | 7.24
TTTCAAGAATTATATAAACACACATACATACACCCA [CACACA_site8592] | 7.31
ATAAGGATCAGACACAAACACACATATATATATATA [CACACA_site558] | 9.31
ATAATTAATCCAAAATGTACTTACATTTTATATGAA [XGTACX_site8888] | 6.91
AAATAATTCATATGTTGTACAGTAATTAAATTTTCT [XGTACX_site6343] | 6.81
TTTTATAATTTATCTAAAAAAAAATAAAATAAAATG [TGCATGCA_negctrl_site429] | 6.92
ATAAAATAAAATAAAAGTACATAAATATATATATAT [XGTACX_site6110] | 9.2
TTTTTTTTTCTTTGCACACAGATAACTTGAAATTTG [CACACA_site2185] | 7.09
TCTTTCTATTAAACATGTACTTGTCTAAAGACATAA [XGTACX_site8564] | 6.99
CGAATAAATATATGTAGTACATGTTGTAGATAATTT [XGTACX_site1218] | 7.06
TATATATATTTAAATTGTACATATATTATTCATATG [XGTACX_site911] | 7.22
AATAATATATATTACTGTACTAATATAAGGGACATC [XGTACX_site3744] | 7.33
TTATTTTCTACAAATTGTACATATTTTTTACTACTC [XGTACX_site1394] | 7.04
